According to PubChem BioAssay AID624296 (National Center for Advancing Translational Sciences (NCATS), 2012):
Out of some 350,000 compounds screened, about 9,900 (2.8%) were called active. The inconclusive results got no clear call from the source; some entries with a clear call stand among them for comparison. Calls come from the whole dose curve; as a rule, active = well fitted activation curve with a large enough effect; inconclusive = small, poorly fitted or top-dose-only effect; inactive = no such curve, though single readings can be large or run the other way. Potencies of inconclusive entries are left out as doubtful fits.

Test: A quantitative high throughput screen for small molecules that induce DNA re-replication in MCF 10a normal breast cells. For activity, positive = re-replication: % of control where 0% means no effect. Note: nearly all actives have a fitted effect of over 50% in size.
Conditions: MCF 10A DNA re-replication, Hoechst nuclear intensity, 48 h; activity, positive = re-replication: at 46.1 µM (top of the series)
Potency is the fitted concentration of half-maximal effect; tags give direction and shape of the fitted curve.

SMILES	Potency	activity, positive = re-replication
CC(C)Cn1c(N)c(C(=O)NCc2cccs2)c2nc3ccccc3nc21	inconclusive [activator, full curve, poor fit]	
CCOC(=O)C[C@H]1c2ccc(C(F)(F)F)cc2S(=O)(=O)N1C(C)(C)C		inactive: 3.84%
Cc1ccc(C)c(N(CC(=O)NC2CCCCC2)C(=O)c2snc(C(N)=O)c2N)c1	inconclusive [activator, single point]	
O=C(CN1C(=O)S/C(=C\c2cc(Cl)c(O)c(Cl)c2)C1=O)Nc1ccccc1	inconclusive [activator, partial curve, poor fit]	
CC(OC(=O)c1ccc(F)c(S(=O)(=O)N2CCOCC2)c1)C(=O)NC1CCCC1 (stereo not drawn)		inactive: -0.816%
CCOCCCn1c(=S)[nH]c2cc(C(=O)NCCCN(CC)CC)ccc2c1=O	inconclusive [activator, single point]	
CC(C(=O)NCc1ccco1)n1ccc2cc(S(=O)(=O)N3CCCCC3)ccc21 (stereo not drawn)	inconclusive [activator, partial curve, poor fit]	
CC(C)c1nnc(NC(=O)C2CCCN2C(=O)Nc2ccc(F)cc2)s1 (stereo not drawn)		inactive: -0.51%
COc1ccccc1OCC(=O)Nc1ccc(S(=O)(=O)Nc2nc(C)cc(C)n2)cc1	inconclusive [activator, partial curve, poor fit]	
Cc1cccc(N2CC(C(=O)NC3CCCCCC3)CC2=O)c1C (stereo not drawn)		inactive: -1.69%
Cc1oc(-c2ccccc2)cc1C(=O)NCc1ccncc1	inconclusive [activator, partial curve, poor fit]	
COc1ccc(C(=O)NCCCOc2cccnc2)cc1OC1CCN(C(C)=O)CC1		inactive: -0.626%
Cc1nc([N+](=O)[O-])c(Sc2nc3ccccc3[nH]2)n1Cc1ccccc1	inconclusive [activator, single point]	
O=C(N/N=C/c1ccccc1O)C(=O)Nc1ccccn1		inactive: -7.82%
O=[N+]([O-])c1ccc(N=Nc2c(Cl)cc(O)cc2Cl)cc1	inconclusive [activator, single point]	
CSc1cccc(NC(=S)N2CCCN(Cc3cccc(Cl)c3)C2)c1	inconclusive [activator, single point]	
COc1cc(N=c2ssnc2Cl)cc(OC)c1OC	inconclusive [activator, single point]	
COc1cc(SC)ccc1C(=O)NCCc1ccccc1	inconclusive [activator, partial curve, poor fit]	
COC(=O)c1ccc(CSc2nnc(NC(=O)C3CC(=O)N(Cc4ccc(C)cc4)C3)s2)cc1 (stereo not drawn)	inconclusive [activator, full curve, poor fit]	
Cn1c(N)c(C(=O)COC(=O)[C@H](Cc2ccccc2)N2C(=O)c3ccccc3C2=O)c(=O)n(C)c1=O	inconclusive [activator, single point]	
CC(C)Oc1cccc(C(=O)C2CCCN(Cc3ccc4nonc4c3)C2)c1 (stereo not drawn)	inconclusive [activator, partial curve, poor fit]	

SMILES	Potency	activity, positive = re-replication
Cc1c(/C=C(\C#N)c2nn(-c3ccccc3)c(N)c2C#N)c2ccccc2n1Cc1ccc(F)cc1	inconclusive [activator, single point]	
Cc1cc(C)c2nc(Cl)c(CN(Cc3ccco3)C(=O)Nc3ccccc3C)cc2c1	inconclusive [activator, partial curve, poor fit]	
Cc1cccc(NC(=O)CSCC(=O)N(C)Cc2c(F)cccc2Cl)c1	inconclusive [activator, partial curve, poor fit]	
CCCOc1ccc(CNC(=S)Nc2ccccc2)cc1Cl	inconclusive [activator, partial curve, poor fit]	
CCOC(=O)c1c(-c2ccc(C)cc2)csc1NC(=O)CCN1CC(C)OC(C)C1 (stereo not drawn)	active: 20.6 µM	
Cc1cccc(-n2c(C)cc(/C=C3/C(=N)N4C(c5ccccc5)=CSC4=NC3=O)c2C)c1	inconclusive [activator, partial curve]	
COc1ccc(N(CC(=O)NC2CCCCC2)C(=O)CCC(=O)Nc2nc(C)cs2)cc1OC	inconclusive [activator, partial curve, poor fit]	
O=C(NCCSc1ccccc1)c1cccnc1	inconclusive [activator, partial curve, poor fit]	
CCOC(=O)CN(C(=O)CNC(=O)c1cccs1)C(C(=O)NC1CCCCC1)c1cccs1 (stereo not drawn)		inactive: -0.391%
Cc1ccc(S(=O)(=O)N2C/C=C\CN(S(=O)(=O)c3ccccc3Br)CC2)cc1	inconclusive [activator, full curve, poor fit]	
COCCNc1nc(N)c([N+](=O)[O-])c(NCc2ccccc2)n1	inconclusive [activator, partial curve, poor fit]	
Cn1nc(-c2ccccc2F)c2cc(C(=O)Nc3ccc4c(c3)OCCO4)sc21	inconclusive [activator, full curve, poor fit]	
O=C(CSc1ncnc2c1oc1ccccc12)Nc1cccc(F)c1	inconclusive [activator, partial curve, poor fit]	
CC(C)(C)NC(=O)COC(=O)c1ccccc1Nc1ccc(SC(F)F)cc1	inconclusive [activator, full curve]	
Fc1ccc(C2=Nn3c(nnc3-c3n[nH]c4c3CCC4)SC2)cc1	inconclusive [activator, partial curve, poor fit]	
F[B-](F)(F)c1cc2ccccc2s1		inactive: 4.24%
C#CCNS(=O)(=O)c1ccc(F)cc1Br	inconclusive [activator, full curve, poor fit]	
CC(C)(C)C(=O)Nc1nc(-c2ccccc2)ns1	inconclusive [activator, partial curve, poor fit]	
COc1cc(OC)cc(-c2c(-c3cccs3)c3cc(-c4ccc(OC)c(OC)c4)ccc3n2C)c1	active: 16.4 µM	
CC(CC(=O)N(CCC1=CCCCC1)c1c(N)n(Cc2ccccc2)c(=O)[nH]c1=O)c1ccccc1 (stereo not drawn)	inconclusive [activator, single point]	
Clc1ccc(CN(CC2CCCO2)C(c2cccs2)c2nnnn2C2CCCC2)cc1 (stereo not drawn)	inconclusive [activator, partial curve, poor fit]	

SMILES	Potency	activity, positive = re-replication
O=C(CCCCCCCCC(=O)N/N=C/c1ccco1)N/N=C/c1ccco1	inconclusive [activator, full curve, poor fit]	
Cc1ccc(NC(=O)/C=C/c2ccc([N+](=O)[O-])s2)c(C)c1	active: 1.64 µM	
O=C(N/N=C/c1ccc2c(c1)OCO2)c1ccc(NC(=O)c2ccc(F)cc2)cc1		inactive: 17.9%
COc1ccc(N2CCN(CC(O)COC(c3ccccc3)c3ccccc3)CC2)cc1 (stereo not drawn)	inconclusive [activator, single point]	
CCOc1ccc(Cn2c(=O)sc3ccccc32)cc1		inactive: 3.22%
COc1ccc(NC(=O)c2ccc3c(c2)NC(=O)CS3)cc1S(=O)(=O)Nc1ccc(Br)cc1		inactive: 0.751%
O=C(CCN1CCCCC1)NNC(=S)NC(=O)c1ccc(Br)cc1		inactive: 3.29%
O=C1C=C(c2ccc3[nH]ccc3c2)C[C@@H](c2ccc(F)cc2)C1	active: 20.6 µM	
COCCn1c(C)cc(C(=O)CSc2nc3ccccc3c(=O)[nH]2)c1C		inactive: 7.91%
Cc1ccc(C)c(NC(=O)CSc2nc(C)cs2)c1		inactive: 2.47%
O=C1N[C@H](Cc2ccccc2)CO1	inconclusive [activator, partial curve, poor fit]	
CCOC(=O)C1CCN(C(=O)CNC(=O)c2nn(-c3ccc(OC)c(Cl)c3)c(=O)c3ccccc23)CC1	inconclusive [activator, single point]	
COc1ccc(N2CCN(C(=O)CCN3C(=S)NC(C)(C)CC3C)CC2)cc1 (stereo not drawn)		inactive: 0.511%
Cc1ccc(C)c(-c2ccc(=O)n(Cc3c(F)cccc3Cl)n2)c1	inconclusive [activator, single point]	
O=C(C[C@H]1C/C=C\CC[C@H](Cc2ccc(F)cc2)C(=O)O[C@@H](c2ccccc2)CNC1=O)N[C@@H](CO)Cc1ccccc1	inconclusive [activator, single point]	
O=C(CC1CC2CCC1C2)Nc1nc(-c2ccccn2)cs1 (stereo not drawn)	inconclusive [activator, partial curve, poor fit]	
CC1Cc2cc(S(=O)(=O)N3CCCCC3C)ccc2N1C(=O)C1CCC1 (stereo not drawn)	inconclusive [activator, partial curve, poor fit]	
CCCOc1ccc(/C=N/Nc2cccc([N+](=O)[O-])c2)c(O)c1	inconclusive [activator, partial curve, poor fit]	
CCn1c(O)c(N=NC(=O)CNc2cccc(C)c2)c2ccccc21	inconclusive [activator, single point]	
COc1ccc(-c2ccc(C(C)=O)cc2)cc1[C@H]1[C@H]2C=CC[C@@H](C)[C@@H]2C(=O)N1Cc1ccccc1	inconclusive [activator, partial curve, poor fit]	
Cc1cc(N2CCN(C(=O)c3cccs3)CC2)c(F)cc1[N+](=O)[O-]	inconclusive [activator, partial curve, poor fit]	
